These results are taken from ChEMBL document CHEMBL1157539, “Thousands of chemical starting points for antimalarial lead identification” (Nature, 2010).

Over roughly 13,000 compounds, “IFI” has its median near 4; the highest 2% begin near 17. This is one part of the list.

The nature of the experiment: GSK_TCMDC: Inhibition Frequency Index (IFI). The number of non-kinase HTS assays where a compound showed > 50 % inhibition, expressed as a percentage of the number of such assays in which the compound was tested (-0 is zero). The class given is functional.
With `CC1(C)NC(N)=NC(=N)N1OCOc1ccc(Cl)cc1`, the IFI was found to be 1.44%. As for `CCCc1cn2c3c(cc(C(=O)N[C@@H](Cc4ccccc4)[C@H](O)CNC4CCOCC4)cc13)N(CC)S(=O)(=O)CC2`, the figure is 4.76%. In turn, `CC(C)(C)NCCN(Cc1ccc(-c2ccc(C(F)(F)F)cc2)cc1)C(=O)Cn1c(SCc2ccc(F)cc2)nc(=O)c2c1CCC2` yielded an IFI of 11.6%. As for `COc1ccc(C2CC(=O)C3=C(C2)NC(C)=C(C(=O)OC2CCCC2)C3c2cccc(O)c2)cc1OC` (configuration not stated), the figure is 3.27%; as for `O=C(Nc1ccc(C(F)(F)F)cc1)N[C@H]1CCN(CCCCCNC(=O)C2CC2c2ccc(Cl)c(Cl)c2)C1` (some centres not stated), 16.8%. Turning to `COc1ccc2nccc(N(C)CC3(O)CCN(CC(O)c4ccc5c(c4)NC(=O)CS5)CC3)c2n1` (configuration not stated), the IFI was found to be 1.46%. In the case of `CC1CCN(Cc2ccc(NC(=O)c3cc4ccc5cccnc5c4[nH]3)cc2)CC1`, the IFI was determined as 7.69%. The compound `O=c1cc(NCCCNCc2ccc(Cl)c(Cl)c2)[nH]c2cc(Cl)ccc12` came in with an IFI of 5.41%. `Cc1ccc(NC(=O)c2ccc(CN3CCCN(CCC(C)C)CC3)cc2)cc1F` gave an IFI of 7.2%.

Compound `Cc1cccc2nc(-c3ccc(-c4ccc(CNCc5cnn(-c6ccccc6)n5)cc4)cc3)[nH]c12` came in with an IFI of 3.28%.

`CCOc1cc(Br)c(C(C)NC(=O)c2cccc(OC)c2)cc1OCC` (configuration not stated) registered an IFI of 2.07%. `c1cc(-c2nc3ccccc3[nH]2)nc(-c2nc3ccccc3[nH]2)c1`: the IFI was 0.75%.

Turning to `COc1ccc(-c2cncc3ccc(C(=O)NCc4ccncc4)nc23)cc1`, the IFI amounted to 6.45%. The compound `COc1cccc(-c2cccc(-c3ccc(NC(=O)c4ccc([N+](=O)[O-])o4)cc3)n2)c1` had an IFI of 9.52%. `Cc1[nH]c(C)c(-c2ccc(Oc3ccc(C(F)(F)F)cc3)cc2)c(=O)c1Br`: the IFI was 2.27%. With `FC(F)(F)c1ccc2[nH]c(-c3ccc(-c4cccc(CNCc5ccccc5)c4)cc3)nc2c1`, the IFI worked out at 12.5%.

For the compound `CC(C)C(=O)Nc1c(F)cc(F)cc1CCc1ccc(O)cc1`, the IFI is -0%. Compound `CCC[C@@H]([C@@H](CC1CCCCC1)C(=O)N[C@H](C(=O)Nc1nccs1)C(C)(C)SCCNC(=O)OCc1ccccn1)N(O)C=O` showed an IFI of 5.8%. Regarding `Cc1ccc(-c2cc3nc4c(c(NCCCn5ccnc5)n3n2)CCC4)cc1`, the IFI was 2.59%. As for `COc1cccc(CNC(=O)c2cnc(N3CCN(c4ccncc4)CC3)c(Cl)c2)c1`, the figure is 2.38%. For `CC(C)CNCc1cccc(-c2cccc(CN(CCCN3CCN(C)CC3)C(=O)/C=C/c3ccccc3)c2)c1`, the IFI turned out to be 5.97%. Compound `O=C(CCN1C(=O)c2ccccc2C1=O)N1CCN(CC=Cc2ccccc2)CC1` showed an IFI of 0.7%. In the case of `CCN1CCN(c2cc(C)c3cc(NC(=O)c4ccc(Br)o4)ccc3n2)CC1`, the IFI stood at 1.48%. As for `COc1ccc(-c2c(C(F)(F)F)nn(C)c2NC(=O)Nc2ccc(F)cc2F)cc1`, the IFI was found to be 3.42%.

The compound `O=S(=O)(NCCN1CCCC1)c1cccc(-c2cccc(CNCc3ccccc3)c2)c1` displayed an IFI of 10.9%. As to `O=C(NC1CCC(N2CCC(Cc3ccc(F)cc3)CC2)CC1)c1cc2ccccc2[nH]1` (configuration not stated), the IFI amounted to 14.7%.

The compound `COc1ccc(-c2ccc(NC(=O)c3ccc(C#N)cc3)cc2)cc1CN1CCCC1` returned an IFI of 5.88%. Take `O=S1(=O)NCc2ccc(Nc3nccc(Nc4ccc5c(cnn5Cc5ccccc5)c4)n3)cc21`: the IFI was 4.35%. As for `CN1CCCN(Cc2cccc(-c3ccc(CNC(=O)c4cccc(Cl)c4)c(F)c3)c2)CC1`, the figure is 9.33%; as for `Oc1cc(NCCCNC2CCc3c(Cl)cc(Cl)cc32)nc2ccccc12` (configuration not stated), 6.62%; as for `O=C(Nc1ccccc1)Nc1cccc(-c2cc(CNCCc3ccccc3)sc2-c2ccncc2)c1`, 4.23%. As for `CC(O)C1CCCCN1C(=O)c1cccc(-c2cccc(-c3nc4cc(F)ccc4[nH]3)c2)c1` (configuration not stated), the figure is 3.81%; as for `CC(C)C1C(O)=C(c2ccc3ccccc3c2)C(=O)N1Cc1cccc(F)c1` (configuration not stated), 0.68%; as for `O=C(NC1CC1)c1ccc(N2CCCCN2CCc2ccccc2)c(C(F)(F)F)c1`, 4.32%. `CCOc1ccc(-c2nonc2NC(=O)c2ccc(OC)cc2)cc1OCC` displayed an IFI of -0%. `COc1cccc(C(=O)N2CCN(Cc3cccc(NC(=O)c4cccs4)c3)CC2)c1` came in with an IFI of 4.62%. As for `O=C(/C=C/c1ccc(Cl)c(Cl)c1)NCCCCCN1CCC(NC(=O)Nc2cc(Cl)cc(Cl)c2)CC1`, the IFI came out at 11.8%. In turn, `COc1cc2nc(NCCc3ccccc3)nc(NC(C)c3ccccc3)c2cc1OC` (configuration not stated) registered an IFI of 11.4%. The compound `Cc1ccccc1NC(=O)C1CSCN1C(=O)OCc1ccccc1` (configuration not stated) had an IFI of 1.49%. As for `CS(=O)(=O)c1ccc(CNCc2ccc(-c3cccc(-c4nc5cc(C(F)(F)F)ccc5[nH]4)c3)cc2)cc1`, the IFI stood at 8.74%.

Compound `CC(C)N(C(=O)CSc1nc2cc(Cl)ccc2c(=O)n1Cc1ccccc1)C(C)C` gave an IFI of 1.41%. Then `CC(COc1ccc2c(c1)OC(C)(C)CC2c1ccccc1)NCC(O)c1cccc(Cl)c1` (configuration not stated), with 5.59%; and `O=C(Nc1ccc(F)c(F)c1)c1ccc(CN2CCCN(Cc3cccc(O)c3)CC2)cc1`, with 8.66%; and `CCc1ccc(C2CCN(CCCCNC(=O)c3ccc(NC(=O)c4ccc(Cl)cc4)cc3)CC2)cc1`, with 4.51%. Take `COc1ccc(CNC2Cc3ccccc3C2)cc1-c1ccc(S(=O)(=O)NCCN2CCCC2)cc1`: the IFI was determined as 7.77%. On to `COc1ccc(-c2cc(-c3nc4cc(CN)ccc4[nH]3)c(=O)n(C)c2)cc1OC`, for which the IFI turned out to be 0%. Consider `COc1ccc2[nH]c(C)cc(=NN=Cc3cc(C)ccc3O)c2c1`, for which the IFI is 10.2%. As to `Cc1ccc(-c2ccc3c(c2)C=C(C(=O)NC2CCN(CCNC(=O)c4cccc(C(F)(F)F)c4)CC2)CCC3)cc1`, the IFI is 2.7%.

For `N#Cc1c(N2CCN(c3ccc(F)cc3)CC2)nc(N)c2c(N)nc3c(c12)CC(=O)N3C1CC1`, the IFI was found to be 3.2%. As for `O=C(NC1CC1)c1cnc(N2CCC(COc3cccc(F)c3)CC2)c(Cl)c1`, the IFI is 6.12%. Then `CCn1c(-c2nonc2N)nc2c(-c3cccc(NC(=O)Nc4ccc(C(F)(F)F)cc4)c3)ncc(OCCCN)c21`, with 19.1%. As for `COc1ccc(-c2cc3ncnc(N4CCN(CCN5CCCC5)CC4)c3s2)cc1`, the IFI stood at 3.45%. On to `O=c1n(CC2CCCCC2)c2cc(Cl)cc(OCCNc3ccncc3)c2n1CC1CCCCC1`, for which the IFI turned out to be 6.99%. For the compound `CCCCN(C)CC#Cc1ccc2[nH]c(C)c(Cl)c(=O)c2c1`, the IFI amounted to 1.8%.

The compound `O=C(Nc1nc2cc(S(=O)(=O)NCCCN3CCOCC3)ccc2n1CCCn1ccnc1)c1ccc(Cl)cc1` showed an IFI of 2.14%.

`COc1ccc(OCCCN2CCCCC2)cc1S(=O)(=O)c1ccc(OCc2ccc(C(F)(F)F)cc2)cc1` yielded an IFI of 13.2%.

As to `O=C(c1c(-c2[nH]c3ccccc3c2C(=O)C(F)(F)F)[nH]c2ccccc12)C(F)(F)F`, the IFI worked out at 3.55%. With `COc1ccc(C(=O)N2CCC3(CC2)C(=O)N(CC(=O)NCC2CCCCC2)CN3c2ccccc2)c(OC)c1`, the IFI was 3.33%. Compound `CN(C)CCN(C)Cc1ccc(-c2ccc(NC(=O)c3cccc(Cl)c3)cc2)cc1` showed an IFI of 10.1%. On to `COCc1nc(N)nc(N)c1-c1ccc(Cl)c(Cl)c1`, for which the IFI was determined as 0.75%.

Consider `Cc1cc(=NN=Cc2cccc(Cl)c2)c2ccccc2[nH]1`, for which the IFI amounted to 3.42%.

For `CC(C)CNCc1ccc(-c2cccc(CNC3CCN(Cc4ccccc4)CC3)c2)cc1`, the IFI stood at 3.62%.

As for `COc1cc(F)c2ncc(Cl)c(CCN3CCC(NCc4ccc5c(c4)NC(=O)CO5)CC3)c2c1`, the IFI came to 5.22%. Then `CCOC(=O)c1ccc(NC(=O)N[C@H]2CCN(CCCCCNC(=O)/C=C/c3ccc(Cl)c(Cl)c3)C2)cc1`, with 7.91%; and `O=S(=O)(c1ccc2ccccc2c1)N1CCCN(Cc2ccc(OCCCN3CCCCC3)cc2)CC1`, with 15.9%; and `CCNc1cc(C(=O)N[C@@H](Cc2ccccc2)[C@H](O)CNCCC(C)c2ccccc2)cc(N2CCCC2=O)c1` (some centres not stated), with 1.45%.

For `CC(C)CCNCc1ccc(OCc2cccc(COc3ccc(CNCCC(C)C)cc3I)c2)c(I)c1`, the IFI turned out to be 10.9%. Compound `COc1cccc(CN2CCC3(CC2)CN(C(=O)Nc2ccc(Cl)c(Cl)c2)C3)c1` registered an IFI of 6.35%. Compound `O=C(/C=C/c1ccc(Cl)c(Cl)c1)NCCCCCCN1CCCN(C(=O)Nc2ccc(Cl)c(Cl)c2)CC1` registered an IFI of 9.76%.

In the case of `COc1ccc(NC(=O)c2ccc(-c3ccc(-c4cccnc4)cc3)c(C)c2)cc1OCCN(C)C`, the IFI came to 6.9%. In the case of `O=C(Nc1ccccc1F)NC1CCN(c2ccnc(Nc3ccc(F)cc3)n2)CC1`, the IFI is 1.52%.

`CCOC(=O)[C@H](Cc1cccc2ccccc12)NC(=O)[C@H](CCC(=O)OC(C)(C)C)NC(=O)c1ccc(N(C)Cc2cnc3nc(N)nc(N)c3n2)cc1` yielded an IFI of 2.86%. The compound `CCCCOc1ccc(C(=O)C(CCC(CNC(C)(C)C)C(=O)c2ccc(OCCCC)cc2)CNC(C)(C)C)cc1` (configuration not stated) had an IFI of 25.4%. `O=C(Nc1ccc(Cl)cc1F)N[C@H]1CCN(CCCCCNC(=O)C2CC2c2ccc(Cl)c(Cl)c2)C1` (some centres not stated): the IFI was 14.2%. The compound `COc1ccc(CNc2ccnc(-n3cnc4cc(C)c(C)cc43)n2)cc1Cl` yielded an IFI of 0.78%. Consider `O=C(NCCCN1CCC(N2CCCCC2)CC1)c1ccc2nc(N3CCCCC3)sc2c1`, for which the IFI worked out at 2.91%.

`CN1CCN(c2nsc3ccc(-c4ccc(OCCN5CCCC5)cc4)cc23)CC1` had an IFI of 12.2%. Turning to `Cc1cccc(Nc2nccc(Nc3cccc(C(=O)NCCN4CCOCC4)c3)n2)c1`, the IFI was -0%.

In turn, `COC(=O)C(Cc1ccccc1)C(CSCc1ccc(OC)cc1)C(=O)N[C@@H](C(=O)OC(C)(C)C)c1ccc(C(C)(C)C)cc1` (some centres not stated) showed an IFI of -0%.

In turn, `O=C(/C=C/c1cccc(Br)c1)NCCCCCN1CCC(c2c[nH]c3ccccc23)CC1` yielded an IFI of 7.75%. Compound `O=c1cc(NCCCNC2CCOc3c(Cl)cc(Cl)cc32)[nH]c2ccccc12` (configuration not stated) returned an IFI of 7.64%.

In turn, `CN(C(=O)Cc1ccc(Cl)c(Cl)c1)C1CCN(CCCCCNC(=O)/C=C/c2ccc(Cl)c(Cl)c2)CC1` showed an IFI of 9.35%. In turn, `CC(C)CCN1CCC(Oc2cccc(NC(=O)c3ccc(C(F)(F)F)cc3)c2)CC1` gave an IFI of 6.58%. In the case of `Cc1ccc(-c2cc(C(=O)Nc3ccc(S(=O)(=O)N4CCCCC4C)cc3)n[nH]2)c(O)c1` (configuration not stated), the IFI worked out at 1.75%. Compound `COc1ccc(CNc2nc(NCCc3ccccc3)c3cc(OC)c(OC)cc3n2)cc1OC` yielded an IFI of 5.84%. Compound `CCNC(=O)Nc1ccc(-c2cnc(N)c(-c3nc4ccc(OC)cc4[nH]3)c2)cc1` gave an IFI of 10.5%. As for `O=C(NC1CCN(c2ccnc3ccccc23)C1)c1cccc(C(F)(F)F)c1` (configuration not stated), the figure is -0%.
